Blank lines part the entries; values can stand above or below the binder they belong to.
Key:
[1] = biological target: T1, recombinant cynomolgus CD3 (cynomolgus, UniProt Q95LI5 22-117); assay: ELISA, recombinant cCD3 coated
T1 construct: Bought protein; subunit make-up not described; also called cCD3
T1 sequence (looked up): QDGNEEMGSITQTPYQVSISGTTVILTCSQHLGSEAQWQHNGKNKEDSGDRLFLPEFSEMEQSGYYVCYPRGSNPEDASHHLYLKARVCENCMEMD
Protocol: (§1) ELISA was performed according to standard protocols. […] The plates were washed with PBS containing 0.05% Tween 20. […] The assay was developed at room temperature with TMB substrate (Sigma-Aldrich) and monitored at 450 nm with a microplate reader.

recombinant human CD3 = biological target: T2, recombinant human CD3 (human, UniProt P07766 23-126); assay: ELISA, recombinant hCD3 coated
Chain of recombinant human CD3 (P07766 23-126): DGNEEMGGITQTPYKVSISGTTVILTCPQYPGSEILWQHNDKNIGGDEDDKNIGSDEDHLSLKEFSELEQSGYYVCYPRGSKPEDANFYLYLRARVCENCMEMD
T2 construct: Bought protein; subunit make-up not described; also called hCD3
Protocol: as §1

recombinant human EGFR = biological target: T3, recombinant human EGFR (human, UniProt P00533 fragment); assay: ELISA, recombinant antigen coated
T3 construct: Bought protein; construct not described; also called hEGFR
Protocol: as §1

recombinant human HER4 = biological target: T4, recombinant human HER4 (human, UniProt Q15303 26-649, limits assumed); assay: ELISA, recombinant antigen coated
T4 construct: also called hHER4
T4 sequence (looked up): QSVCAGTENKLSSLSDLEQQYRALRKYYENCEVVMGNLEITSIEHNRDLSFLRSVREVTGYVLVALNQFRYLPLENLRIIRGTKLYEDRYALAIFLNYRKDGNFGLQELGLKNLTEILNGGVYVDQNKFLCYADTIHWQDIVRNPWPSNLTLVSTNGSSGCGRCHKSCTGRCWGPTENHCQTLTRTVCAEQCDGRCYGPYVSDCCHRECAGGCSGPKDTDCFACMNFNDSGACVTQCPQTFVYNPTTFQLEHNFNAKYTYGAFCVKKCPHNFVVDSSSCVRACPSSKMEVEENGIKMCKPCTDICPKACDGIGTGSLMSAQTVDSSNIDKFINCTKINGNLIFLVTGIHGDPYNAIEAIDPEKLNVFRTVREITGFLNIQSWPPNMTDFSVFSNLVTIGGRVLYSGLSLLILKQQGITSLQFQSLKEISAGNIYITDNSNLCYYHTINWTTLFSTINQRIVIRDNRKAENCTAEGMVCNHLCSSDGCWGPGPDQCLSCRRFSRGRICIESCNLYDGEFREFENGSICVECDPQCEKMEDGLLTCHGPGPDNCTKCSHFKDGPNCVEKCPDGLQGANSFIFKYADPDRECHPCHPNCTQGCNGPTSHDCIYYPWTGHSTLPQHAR
Protocol: as §1

[2] = biological target: human EGFR on cells (HCT116, A549, A431, HT29) (human, UniProt P00533); assay: cell-based or functional assay
[3] = biological target: T5, human CD3 on cells (Jurkat T cell line; T cells) (human, UniProt P07766); assay: flow cytometry on Jurkat cells, concentration series
T5 construct: whole, on cells; CD3 is a complex of several chains; also called cell surface CD3; cell-surface CD3
Source text: The cells were washed once with PBSA and then used for flow cytometry analysis.

- EC50 [1]: 4.5 nM
- EC50 (recombinant human CD3): 3.4 nM
- binding result (recombinant human EGFR): binds
- binding result (recombinant human HER4): no binding
B1: proBiTE-1s1spg (proBiTE-1s1sp with germline reversions in hSP34) (bispecific antibody)
heavy: EVQLVETGGGVVQPGRSLRLSCAASGFTFSSYAMHWVRQAPGKGLEWVAVISYDGSNKYYADSVKGRFTISRDNSKNTLYLQMNSLRAEDTAVYYCARGYVARGDFDYWGQGTLVTVSSGGGSSGGGGSGGGGSEVQLVESGGGLVQPGGSLRLSCAASGFTFNTYAMNWVRQAPGKGLEWVARIRSKYNNYATYYADSVKGRFTISRDDSKNTLYLQMNSLRAEDTAVYYCARHGNFGSSYVSYFAYWGQGTTVTVSSASTKGPSVFPLAPSSKSTSGGTAALGCLVKDYFPEPVTVSWNSGALTSGVHTFPAVLQSSGLYSLSSVVTVPSSSLGTQTYICNVNHKPSNTKVDKKVEPKS[… human IgG1 Fc with T366L Y407H (EU numbers) …]
light: DVVMTQSPSTLSASVGDRVTITCRASQSMSRWLAWYQQKPGKGPKLLIYATSTLQSGVPSRFSGSGSGTEFTLTISSLQPEDFATYYCQQLDSFPFSFTFGPGTKVDLKGSGSGRSDNHGGGGSEIVVTQSPATLSVSPGERATLSCRSSTGAVTTSNYANWVQQKPGQAPRGLIGGANKRAPGVPARFSGSLSGDEATLTISSLQSEDFAVYYCALWYSNLWVFGQGTKLEIKRTVAAPSVFIFPPSDEQLKSGTASVVCLLNNFYPREAKVQWKVDNALQSGNSQESVTEQDSKDSTYSLSSTLTLSKADYEKHKVYACEVTHQGLSSPVTKSFNRGE[… human IgG1 Fc with T366L Y407H (EU numbers) …]
modifications: Biotinylated in the ELISA per paragraph 229; sites not stated.
notes: also called proBiTE-spg

- EC50 [1]: 3.8 nM
- EC50 (recombinant human CD3): 4.5 nM
- binding result (recombinant human EGFR): binds
- binding result (recombinant human HER4): no binding
B2: HBiTE-spg (proBiTE-1s1spg with a protease non-cleavable linker) (bispecific antibody)
heavy: B1 heavy
light: DVVMTQSPSTLSASVGDRVTITCRASQSMSRWLAWYQQKPGKGPKLLIYATSTLQSGVPSRFSGSGSGTEFTLTISSLQPEDFATYYCQQLDSFPFSFTFGPGTKVDLKGSGGGGSGGGGSEIVVTQSPATLSVSPGERATLSCRSSTGAVTTSNYANWVQQKPGQAPRGLIGGANKRAPGVPARFSGSLSGDEATLTISSLQSEDFAVYYCALWYSNLWVFGQGTKLEIKRTVAAPSVFIFPPSDEQLKSGTASVVCLLNNFYPREAKVQWKVDNALQSGNSQESVTEQDSKDSTYSLSSTLTLSKADYEKHKVYACEVTHQGLSSPVTKSFNRGE[… human IgG1 Fc with T366L Y407H (EU numbers) …]
modifications: Biotinylated in the ELISA per paragraph 229; sites not stated.
notes: also called HBiBody-spg

- fold weaker binding than iBiTE [3]: ~30 fold
B3: proBiTE-1 (protease cleavable bispecific T cell engager, EGFR×CD3) (bispecific antibody)
heavy: EVQLVETGGGVVQPGRSLRLSCAASGFTFSSYAMHWVRQAPGKGLEWVAVISYDGSNKYYADSVKGRFTISRDNSKNTLYLQMNSLRAEDTAVYYCARGYVARGDFDYWGQGTLVTVSSGGGSSGGGGSGGGGSQVQLVQSGGGVVQPGRSLRLSCKASGYTFTRYTMHWVRQAPGKGLEWIGYINPSRGYTNYNQKVKDRFTISTDKSKSTAFLQMDSLRPEDTAVYYCARYYDDHYSLDYWGQGTTLTVSSASTKGPSVFPLAPSSKSTSGGTAALGCLVKDYFPEPVTVSWNSGALTSGVHTFPAVLQSSGLYSLSSVVTVPSSSLGTQTYICNVNHKPSNTKVDKKVEPKS[… human IgG1 Fc with T366L Y407H (EU numbers) …]
light: DVVMTQSPSTLSASVGDRVTITCRASQSMSRWLAWYQQKPGKGPKLLIYATSTLQSGVPSRFSGSGSGTEFTLTISSLQPEDFATYYCQQLDSFPFSFTFGPGTKVDLKGGGGSLSGRSDNHGGGGSDIQMTQSPSSLSASVGDRVTITCSASSSVSYMNWYQQTPGKAPKRWIYDTSKLASGVPSRFSGSGSGTDYTFTISSLQPEDIATYYCQQWSSNPFTFGQGTKLQITRTVAAPSVFIFPPSDEQLKSGTASVVCLLNNFYPREAKVQWKVDNALQSGNSQESVTEQDSKDSTYSLSSTLTLSKADYEKHKVYACEVTHQGLSSPVTKSFNRGE[… human IgG1 Fc with T366L Y407H (EU numbers) …]
modifications: Biotinylated in the FcγR ELISA; sites not stated.
notes: also called intact proBiTE-1; copies: 1 + 1
- killing of HT29 cells (luciferase) with human PBMC, EC50 [2]: ~0.09 nM
- killing of HT29 cells, EC50 fold higher than that of iBiTE [2]: 15 fold

- EC50 [1]: 1.6 nM
- EC50 (recombinant human CD3): 1.3 nM
- binding result (recombinant human EGFR): binds
- binding result (recombinant human HER4): no binding
B4: iBiTE-sp (EGFR×CD3, SMET5.2 scFv on hSP34 Fab-mFc7.2) (bispecific antibody)
heavy: EVQLVETGGGVVQPGRSLRLSCAASGFTFSSYAMHWVRQAPGKGLEWVAVISYDGSNKYYADSVKGRFTISRDNSKNTLYLQMNSLRAEDTAVYYCARGYVARGDFDYWGQGTLVTVSSGGGGSGGGGSGGGGSDVVMTQSPSTLSASVGDRVTITCRASQSMSRWLAWYQQKPGKGPKLLIYATSTLQSGVPSRFSGSGSGTEFTLTISSLQPEDFATYYCQQLDSFPFSFTFGPGTKVDLKGGGSSEVQLVESGGGLVQPGGSLRLSCAASGFTFNTYAMNWVRQAPGKGLEWVARIRSKYNNYATYYADSVKGRFTISRDDSKNTLYLQMNSLRAEDTAVYYCVRHGNFGNSYVSYFAYWGQGTTVTVSSASTKGPSVFPLAPSSKSTSGGTAALGCLVKDYFPEPVTVSWNSGALTSGVHTFPAVLQSSGLYSLSSVVTVPSSSLGTQTYICNVNHKPSNTKVDKKVEPKS[… human IgG1 Fc with T366L Y407H (EU numbers) …]
light: EIVVTQSPATLSVSPGERATLSCRSSTGAVTTSNYANWVQQKPGQAPRGLIGGANKRAPGVPARFSGSLSGDEATLTISSLQSEDFAVYYCALWYSNLWVFGQGTKLEIKRTVAAPSVFIFPPSDEQLKSGTASVVCLLNNFYPREAKVQWKVDNALQSGNSQESVTEQDSKDSTYSLSSTLTLSKADYEKHKVYACEVTHQGLSSPVTKSFNRGE[… human IgG1 Fc with T366L Y407H (EU numbers) …]

— patent US20210388118A1 (ZHEJIANG SHIMAI PHARMACEUTICAL, published 2021)
